Laboratory results reported in the supplement of paper PMC4466236.
Over roughly 33,000 sequences, “E-score (dimensionless, -0.5 to 0.5)” has its median near -0.058; the highest 2% begin near 0.35. The list shows a part of the results.

Test system: MvaT
Assay: PBM 8-mer E-score (mean of HK and ME arrays) (E-score (dimensionless, -0.5 to 0.5)); higher = stronger relative binding preference; most listed sequences are background and not binding sites
Method in brief: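 Full-length P. aeruginosa MvaT carrying an N-terminal glutathione S-transferase tag was tested by protein binding microarray following a previously described protocol. Two universal double-stranded 60-mer arrays, ME and HK, were used, each with a constant 25-mer primer region and a variable 35-mer region covering all 8-mers. The rank-based E-score is the mean of the two arrays, parsed with a custom script. Its range runs from -0.5 to 0.5 for each 8-mer.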

Sequence | PBM 8-mer E-score
TGCCGCCA | -0.142
GAAGGAAC | -0.0975
GAATTTCC | 0.0596
ATCAGGCC | -0.224
GAGCGCAC | -0.228
GTCATATA | 0.282
CGTATACG | 0.0857
AACTAGAC | 0.102
AGCTCGAG | -0.0655
ATGTGACG | -0.101
ACCGTTCA | 0.0636
ACGCAGAC | -0.0362
ATGGGTGG | -0.0367
ACTCACAT | 0.0706
ATTATTCC | 0.341
GTGCAAGA | 0.082
GTTAACCA | 0.122
CACAGTAA | 0.133
GCCCGCCC | -0.143
CTTTAAGA | 0.0625
GAGCGACA | -0.192
GCTGAGCA | -0.285
GAAAGTGC | 0.0954
CTGGTTGA | -0.124
GGAAGCTA | -0.176

Sequence | PBM 8-mer E-score
AGTCCGGA | 0.0416
AGTAGCGA | -0.0692
CCAATAAA | 0.302
GACCTGTA | -0.0779
AAAATAAT | 0.422
CGGTATGC | -0.141
AGACACAG | -0.141
CACCACGA | -0.0567
ACGGCATG | -0.217
CAGTATGA | 0.188
CCCCGTCG | -0.33
AGACACAT | 0.105
AAAAGAAC | 0.145
CTCGATAA | -0.0933
ATAAAGGA | 0.0948
GTAGCTGA | -0.0774
CGAAGGTA | -0.284
GCACAGAC | -0.17
ACATTTGG | -0.00902
CCATGACG | -0.191
GCCGGAGA | -0.282
CTGCGCTA | -0.173
AGACGAGC | -0.183
GCCTCCAA | -0.166
AACAGGAG | -0.0255

Sequence | PBM 8-mer E-score
CGCGTGAC | -0.161
GTGGTACA | -0.00692
TCGCGAAA | -0.0473
TACGAGAA | 0.0165
CCGCATCG | -0.289
TGAAATAA | 0.314
CTAAAATC | 0.148
GCTTTTAA | 0.267
CTGGTCTA | -0.126
GCCGACTA | -0.209
AGTAGAAT | 0.163
ACCGCTTG | -0.106
CAACGGGA | 0.0055
CGACATCC | -0.109
ACGTTCTA | 0.178
AAGGCAAA | 0.0855
AGATTTCC | -0.0424
ATGACCTA | -0.139
CGCGCCCC | -0.273
CCGTCATC | -0.14
ATGATTCA | 0.153
AGATTAGA | 0.188
GAGCTGCA | -0.107
AAGTTCGT | 0.181
CATCCGCC | -0.163

Sequence | PBM 8-mer E-score
AGGCTGGA | -0.135
ACACGATC | -0.0432
ACTAATCT | 0.197
CGCCAGAC | -0.212
ACAAGTAA | 0.317
CAGACTCC | -0.24
CTTTATAC | 0.264
GAATACCC | -0.0297
ACGTGACC | -0.122
GTGAGAGA | -0.0566
CCAGGTTA | -0.138
GTTCAAAA | -0.0446
GAATCGGC | -0.213
CAAAGACC | -0.0793
CACCCATA | 0.131
GATGGACA | -0.218
ACTCTCGG | -0.108
TCCGAAAA | -0.0589
ACCCTGAG | -0.208
GACGCACA | -0.017
ATAACTAG | 0.27
CTATGATC | -0.0064
ACACCTCA | 0.0382
ACCGGCTC | -0.3
CCTCGAGG | -0.23

Sequence | PBM 8-mer E-score
CTTCCGGC | -0.257
CTCCGCAA | -0.127
AGAAGATA | 0.0783
CGTTTATA | 0.34
CCATTAAA | 0.329
CACTGGCC | -0.258
AGCTTCGG | -0.222
ATGATTGC | -0.0682
CACTATCG | 0.154
TGATGGCA | -0.146
CGATACTA | 0.0825
CATCTGAG | -0.0797
AGGGGTGC | -0.279
AGGCACAC | -0.171
GATAAGCA | -0.0813
ACGCAGCA | -0.145
AAACCACA | 0.121
AGAGCTTC | -0.2
AGGTCCTG | -0.144
CGCTCGAA | -0.112
GACAAGTA | 0.143
ACAAACCG | 0.0425
CACTCAAC | -0.0191
GGTGGATA | -0.0615
TAGATAAA | 0.147

Sequence | PBM 8-mer E-score
ACGAAACG | -0.0475
ACATAGTG | 0.0877
GACTAACC | -0.0953
GCTGCTTA | 0.0449
CCGTTTTA | -0.0465
CCAATTGG | -0.00824
ATAGGCCA | -0.122
AAAACTCT | 0.0469
CACTCGCA | -0.113
CGGTGGGA | -0.0568
CCCACAAC | -0.0863
CTAATGGC | -0.00928
ATTCACTG | -0.0332
AGCGTGCA | -0.173
CACCGGGG | -0.14
GATACTGC | -0.105
CCCTGTAG | -0.287
AGACGTCC | -0.219
ATCTGAAA | 0.134
ACCATTGA | -0.0569
AAGCAAGA | 0.0647
TAAGTCAA | 0.125
GACAATCC | 0.0147
CTTATAGA | 0.0191
ATGCTAGC | -0.0196

Sequence | PBM 8-mer E-score
AGTACTGA | 0.123
CAATTGGA | 0.139
ATGGTTTC | -0.00565
ACCGGGCG | -0.204
CACATTCA | 0.168
CCAAAAAC | 0.0844
AGATCTCG | -0.173
AATCAGTC | -0.0674
CAGACCGC | -0.243
ACTATCAG | -0.00533
CGGCCCGA | -0.249
CAACCCCC | -0.326
AACGCAAG | -0.0605
CGAATAAG | 0.122
CAACACGA | 0.00572
CAAGTCCA | -0.0879
GTATCGTA | -0.0264
GCCTACGA | -0.271
ACCACGCC | -0.151
TCGACCGA | -0.118
AAGTCTGA | -0.121
CGAGGCCG | -0.0886
